Results taken from PubChem BioAssay AID504333 (National Center for Advancing Translational Sciences (NCATS), 2011).
Among all 360,000 compounds or so, about 16,000 (4.4%) were called active. Inconclusive means that the source gave no clear call. Such entries were picked first, then a sample of the others. Calls come from the whole dose curve; as a rule, active = well fitted inhibition curve with a large enough effect; inconclusive = small, poorly fitted or top-dose-only effect; inactive = no such curve, though single readings can be large or run the other way. Potencies of inconclusive entries are doubtful fits and often do not repeat.

target: Bromodomain adjacent to zinc finger domain protein 2B (Homo sapiens) (UniProt Q9UIF8); test: qHTS Assay for Inhibitors of BAZ2B; conditions: AlphaScreen BAZ2B-H3K14Ac peptide displacement; activity change, negative = inhibition: at 114 µM (top of the series) unless noted; note: nearly all actives have a fitted effect of over 60% in size
Chain of UniProt Q9UIF8 (Q9UIF8 whole entry, looked up, the tested form may be a part): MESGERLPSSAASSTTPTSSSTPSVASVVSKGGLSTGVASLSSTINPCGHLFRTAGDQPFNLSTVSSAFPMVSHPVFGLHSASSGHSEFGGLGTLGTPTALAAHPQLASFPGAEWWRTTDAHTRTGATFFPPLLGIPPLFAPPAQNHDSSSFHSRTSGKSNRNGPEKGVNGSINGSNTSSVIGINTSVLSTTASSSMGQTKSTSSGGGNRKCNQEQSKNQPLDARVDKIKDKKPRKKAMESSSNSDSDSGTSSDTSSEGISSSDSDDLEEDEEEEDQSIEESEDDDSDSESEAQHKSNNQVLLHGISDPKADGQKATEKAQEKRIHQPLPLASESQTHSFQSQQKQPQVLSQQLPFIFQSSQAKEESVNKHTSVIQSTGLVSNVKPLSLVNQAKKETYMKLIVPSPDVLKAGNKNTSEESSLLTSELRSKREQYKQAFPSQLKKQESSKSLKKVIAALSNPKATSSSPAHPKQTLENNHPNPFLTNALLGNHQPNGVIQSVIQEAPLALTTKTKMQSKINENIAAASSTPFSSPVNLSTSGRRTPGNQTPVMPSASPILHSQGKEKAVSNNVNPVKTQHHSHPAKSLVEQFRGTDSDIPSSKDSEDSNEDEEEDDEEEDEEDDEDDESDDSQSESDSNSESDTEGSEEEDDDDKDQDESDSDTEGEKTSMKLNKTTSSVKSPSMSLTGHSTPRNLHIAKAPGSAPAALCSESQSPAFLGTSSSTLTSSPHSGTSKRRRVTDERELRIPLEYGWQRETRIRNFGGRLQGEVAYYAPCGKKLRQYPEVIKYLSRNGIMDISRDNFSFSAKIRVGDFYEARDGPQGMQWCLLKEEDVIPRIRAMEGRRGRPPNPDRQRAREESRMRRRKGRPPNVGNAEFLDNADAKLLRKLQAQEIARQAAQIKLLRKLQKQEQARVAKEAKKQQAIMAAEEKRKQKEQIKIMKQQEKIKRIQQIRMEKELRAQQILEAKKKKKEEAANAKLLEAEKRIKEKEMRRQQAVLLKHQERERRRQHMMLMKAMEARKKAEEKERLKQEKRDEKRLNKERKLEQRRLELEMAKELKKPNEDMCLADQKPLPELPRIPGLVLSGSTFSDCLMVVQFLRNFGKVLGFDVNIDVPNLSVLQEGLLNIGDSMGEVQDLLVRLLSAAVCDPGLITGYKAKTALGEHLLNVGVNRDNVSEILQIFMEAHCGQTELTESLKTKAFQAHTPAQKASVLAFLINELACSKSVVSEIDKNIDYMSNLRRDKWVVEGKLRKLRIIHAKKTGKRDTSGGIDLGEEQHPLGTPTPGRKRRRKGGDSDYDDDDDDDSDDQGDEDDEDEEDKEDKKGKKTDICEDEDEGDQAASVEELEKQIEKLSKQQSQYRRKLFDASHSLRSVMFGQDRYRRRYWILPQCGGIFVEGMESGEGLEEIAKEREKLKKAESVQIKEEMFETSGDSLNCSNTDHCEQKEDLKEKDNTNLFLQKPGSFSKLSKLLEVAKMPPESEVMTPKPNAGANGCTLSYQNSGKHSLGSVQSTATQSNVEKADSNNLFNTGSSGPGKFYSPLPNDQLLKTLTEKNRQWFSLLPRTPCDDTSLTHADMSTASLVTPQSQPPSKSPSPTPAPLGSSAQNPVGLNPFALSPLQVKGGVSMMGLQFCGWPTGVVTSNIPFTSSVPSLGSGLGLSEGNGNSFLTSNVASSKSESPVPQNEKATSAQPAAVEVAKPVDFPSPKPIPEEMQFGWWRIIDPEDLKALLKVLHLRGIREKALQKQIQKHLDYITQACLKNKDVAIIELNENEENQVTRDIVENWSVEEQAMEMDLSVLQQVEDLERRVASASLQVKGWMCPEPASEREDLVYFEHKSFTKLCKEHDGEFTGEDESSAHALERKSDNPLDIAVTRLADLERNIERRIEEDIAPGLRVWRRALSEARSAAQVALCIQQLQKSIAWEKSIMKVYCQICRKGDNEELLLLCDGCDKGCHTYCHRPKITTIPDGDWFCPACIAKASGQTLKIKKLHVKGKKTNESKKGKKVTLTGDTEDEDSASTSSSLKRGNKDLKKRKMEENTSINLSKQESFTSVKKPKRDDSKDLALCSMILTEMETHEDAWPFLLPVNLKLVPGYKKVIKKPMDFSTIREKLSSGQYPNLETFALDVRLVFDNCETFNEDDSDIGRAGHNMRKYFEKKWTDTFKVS
In short: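 Compounds, titrated to a top concentration of 110 uM, were incubated 30 min at room temperature with preformed BAZ2B/acetyl-K14 H3 peptide complex (50 nM each). Proximity signal was measured by AlphaScreen after 20 min with beads.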
% is set by controls: 0 for no effect and ±100 for the full control effect; potency is the fitted concentration of half-maximal effect; tags give direction and shape of the fitted curve.

SMILES | Potency | activity change, negative = inhibition
CC(=O)Nc1c(O)nc(SCC(=O)Nc2ccc(C(C)=O)cc2)[nH]c1=O | inconclusive: 100 µM [inhibitor, single point] | –
CC(C)=CCc1c(O)ccc(C(=O)Cc2ccccc2)c1O | – | inactive: 16.8%
Cc1nc(-c2ccccc2)sc1-c1n[nH]c(=S)n1C | active: 79.4 µM | –
Cc1cc(-c2n[nH]c(=S)n2/N=C/c2ccco2)n[nH]1 | inconclusive: 89.1 µM [inhibitor, single point] | –
COCCn1c(-c2ccccc2)cnc1N | inconclusive: 79.4 µM [inhibitor, single point] | –
Nc1ccc(C(=O)N/N=C/c2sc(N3CCOCC3)nc2-c2ccccc2)cc1 | inconclusive: 100 µM [inhibitor, single point] | –
COc1ccc(-c2cc(C)no2)cc1S(=O)(=O)Nc1cccc(C(F)(F)F)c1 | – | inactive: -0.228%
COc1ccccc1Nc1nc(N)nc(CSc2nccn2C)n1 | – | inactive: -3.72%
CCN1CCN(CC(O)COC(c2ccccc2)c2ccccc2C)CC1 (stereo not given) | active: 22.4 µM | –
O=c1c2ccccc2[nH]c(=S)n1Cc1cccnc1 | – | inactive: 0.668%
Cc1cc(N)n(-c2ccc(Oc3ccccc3)c(S(=O)(=O)O)c2)n1 | active: 56.2 µM | –
COc1ccc(/C=N/N2CCN(Cc3ccccc3)CC2)cc1 | inconclusive: 50.1 µM [inhibitor, partial curve] | –
COCCN(C(=S)Nc1cccc(C)c1C)C(C)c1ccco1 (stereo not given) | – | inactive: -1.01%
Cc1ccc(S(=O)(=O)N2CCN(Cc3nc4ccccc4n3C)CC2)cc1 | – | inactive: -21.1%
CCOc1ccc(N/C(C)=C\C(=O)c2ccc3c(c2)OCCO3)cc1 | active: 25.1 µM | –
Cc1nnc(SCCn2c(N3CCN(C)CC3)nc3c2c(=O)n(C)c(=O)n3C)s1 | inconclusive: 89.1 µM [inhibitor, single point] | –
CCOC(=O)c1c(N)sc(C(O)(C(F)(F)F)C(F)(F)F)c1-c1ccc(OC)cc1OC | inconclusive: 89.1 µM [inhibitor, single point] | –
COc1cc(NC(=O)C2CC(c3cccc(Br)c3)=NO2)cc(OC)c1OC (stereo not given) | inconclusive: 56.2 µM [inhibitor, partial curve] | –
CCOc1cccc(-c2cc(-c3n[nH]c(=S)n3CC)c3ccccc3n2)c1 | inconclusive: 100 µM [inhibitor, single point] | –
Cc1ccc(NC2CCCN(C(=O)c3ccoc3)C2)cc1C (stereo not given) | inconclusive: 50.1 µM [inhibitor, partial curve] | –
Cc1ncc(CO)c2c1Oc1nc(-c3ccccc3F)nc(SCC(=O)N3CCCCC3)c1C2 | inconclusive: 89.1 µM [inhibitor, single point] | –
CCOC1=C/C(=C/c2c(N)n3nc(CC(=O)N4CCCCC4)sc3nc2=O)C=CC1=O | inconclusive: 70.8 µM [inhibitor, single point] | –
O=C(NCc1ccncc1)/C(=C\c1ccc(F)cc1)NC(=O)c1ccccc1 | – | inactive: 7.73%
Cc1ccc(S(=O)(=O)N2CCCC2CNC(=O)C(=O)NCCN2CCOCC2)cc1 (stereo not given) | – | inactive: 9.86%
COc1ccc(OCCN2CCOCC2)cc1 | inconclusive: 44.7 µM [inhibitor, partial curve] | –

SMILES | Potency | activity change, negative = inhibition
COc1ccc(C(=O)Nc2nc(N)n(-c3ccccc3)n2)cc1 | inconclusive: 79.4 µM [inhibitor, single point] | –
O=C(NC1CCCCC1)c1ccccc1NC(=S)NC(=O)C1CCC1 | inconclusive: 0.631 µM [inhibitor, full curve, poor fit] | –
c1ccc2c(C[C@@H]3CNCCN3CC3CCCCC3)cccc2c1 | active: 39.8 µM | –
COc1ccc(N(CC(=O)NC2CCCC2)C(=O)Cn2nnc(-c3ccc(OC)c(OC)c3)n2)cc1 | – | inactive: -20%
O=C(N/N=C/c1ccncc1)c1cc([N+](=O)[O-])cc([N+](=O)[O-])c1O | inconclusive: 39.8 µM [inhibitor, single point] | –
Cc1cc(C)c(NC(=O)COC(=O)Cc2cccs2)c(C)c1 | – | inactive: 2.59%
COc1ccc(N2CCN(C(=O)c3ccc(CS(=O)Cc4ccc(C)cc4)o3)CC2)cc1 (stereo not given) | inconclusive: 79.4 µM [inhibitor, partial curve] | –
Cc1cc(C(=O)Nc2ncn(Cc3ccc(F)cc3)n2)ccc1[N+](=O)[O-] | inconclusive: 89.1 µM [inhibitor, single point] | –
CN(C)c1ccc(S(=O)(=O)c2ccc(Cl)cc2)cc1 | – | inactive: -3.12%
COc1cc([N+](=O)[O-])ccc1NC(=O)/C=C/C(=O)O | – | inactive: 5.85%
CCc1nnc(NC(=O)C(c2ccccc2)c2ccccc2)s1 | – | inactive: -13.5%
COc1ccc(CCN(C)C(=O)C2CCCN(C3CCN(Cc4ccccc4)CC3)C2)cc1OC (stereo not given) | active: 35.5 µM | –
Nc1ccccc1C(=O)N1CCC(O)(c2ccc(Cl)cc2)CC1 | – | inactive: 9.18%
COCCn1c(C)cc(C(=O)CSc2nc3ccccc3s2)c1C | inconclusive: 44.7 µM [inhibitor, partial curve] | –
COc1ccc(N2CCN(C(CNS(=O)(=O)c3c(C)cc(C)cc3C)c3ccco3)CC2)cc1 (stereo not given) | active: 31.6 µM | –
CN1Cc2c(N3CCOCC3)nc3sc(C(=O)c4ccc(Br)cc4)c(N)c3c2CC1(C)C | active: 35.5 µM | –
COc1ccccc1N=C(C)C1=C(O)CC(c2ccccc2)CC1=O (stereo not given) | inconclusive: 56.2 µM [inhibitor, partial curve] | –
COC(=O)c1ccc(N=Nc2ccccc2)cc1 | active: 12.6 µM | –
CCCCc1c(C)nn(-c2nnc3c4ccccc4n(C)c3n2)c1C | inconclusive: 7.94 µM [inhibitor, full curve, poor fit] | –
O=C(O)Cc1c(C(=O)O)[nH]c2ccc(C(=O)O)cc12 | inconclusive: 79.4 µM [inhibitor, single point] | –
COc1ccc(OC)c(C2C(C(=O)c3ccco3)=C(O)C(=O)N2Cc2cccnc2)c1 (stereo not given) | inconclusive: 79.4 µM [inhibitor, single point] | –
O=C(COC(=O)c1ccccc1NCCO)Nc1cccc(S(=O)(=O)NC2=NCCCCC2)c1 | inconclusive: 89.1 µM [inhibitor, single point] | –
COc1ccc(/C=N/n2c(-c3cc(C)[nH]n3)n[nH]c2=S)cc1OC | inconclusive: 89.1 µM [inhibitor, single point] | –
CCOC(=O)C1=C(Cc2ccc(Cl)cc2)C(=O)c2ccccc2C1=O | active: 22.4 µM | –
COc1cc(C(=O)Nc2ccc(OCc3cc(=O)n4ccc(C)cc4n3)cc2)cc(OC)c1OC | – | inactive: -3.88%

SMILES | Potency | activity change, negative = inhibition
CCCCOc1cccc(NC(=O)CSc2nncn2C)c1 | – | inactive: 0.278%
Cc1cccc(CS(=O)(=O)CC2Nc3ccc(C(=O)NCc4ccccc4Cl)cc3NC2=O)c1 (stereo not given) | – | inactive: -6.56%
COc1cccc2sc(N(CCCN(C)C)C(=O)c3ccc(S(=O)(=O)N4CCCc5ccccc54)cc3)nc12 | active: 39.8 µM | –
O=C(CSc1nc2ccccc2[nH]1)c1ccc2c(c1)OCO2 | inconclusive: 79.4 µM [inhibitor, single point] | –
COc1ccc(Cc2nnc(NC(=O)c3c(-c4ccccc4)noc3C)s2)cc1 | inconclusive: 50.1 µM [inhibitor, partial curve] | –
CCOc1ccc(C2c3[nH]c4ccccc4c3C[C@H]3C(=O)N(C4CCN(Cc5ccccc5)CC4)CC(=O)N23)cc1OC (stereo not given in full) | inconclusive: 31.6 µM [inhibitor, partial curve] | –
COc1ccc(NC(=O)CN(C)C(=O)c2cc3c(s2)CCCCC3)cc1 | – | inactive: -15.8%
COCCCN1C(=O)/C(=C\c2cccs2)C(C(=O)OC)=C1C | inconclusive: 44.7 µM [inhibitor, partial curve] | –
Cc1cc(NC(=O)CSc2sc3c(O)cc(=O)[nH]c3c2C#N)ccc1Br | active: 79.4 µM | –
COc1ccc(N2CCN(C(=O)CCN3C(=O)C4C5C=CC(C5)C4C3=O)CC2)cc1 (stereo not given) | – | inactive: 10.4%
Cc1ccc(-c2cnco2)cc1 | – | inactive: -2.78%
O=S(=O)(c1ccc(F)cc1)c1nc(-c2ccccc2F)oc1N1CCCCC1 | inconclusive: 35.5 µM [inhibitor, full curve] | –
COc1ccccc1/C=C1\SC(=S)N(CCC(=O)NNC(=O)c2ccccc2OC)C1=O | – | inactive: 3.03%
CCOc1ccc(-n2nc(CO)c(C(=O)NCc3ccc(Cl)cc3)n2)cc1 | – | inactive: -7.87%
C/C(CC(=O)NC(C)(C)C)=N\NC(N)=S | inconclusive: 25.1 µM [inhibitor, partial curve] | –
COc1ccc(Br)c2c1-c1nc(NC(=O)c3cccc(C)c3)sc1C2 | inconclusive: 35.5 µM [inhibitor, single point] | –
c1ccc(-c2oc3ncnc(NCCCn4ccnc4)c3c2-c2ccccc2)cc1 | active: 25.1 µM | –
CCOC(=O)c1c(C)[nH]c(C2=NNC(=Nc3ccc(OCC)cc3)SC2)c1C | active: 50.1 µM | –
NC(=O)C1=C[C@@H](C2CCCCC2)C[C@@H](OCCCCO)O1 | – | inactive: -4.4%
Cc1ccc(-n2nc(-c3ccc(N)cc3)cc2N)cc1 | inconclusive: 44.7 µM [inhibitor, partial curve] | –
CC1(OC(=O)CCc2ccccc2)C(=O)C=C2C=C(c3ccc(C#N)cc3)N(C3CCCCC3)C=C2C1=O (stereo not given) | inconclusive: 56.2 µM [inhibitor, partial curve] | –
O=C(CCCN1C(=O)/C(=C\c2ccccc2)SC1=S)Nc1ccc(O)cc1C(=O)O | active: 35.5 µM | –
CCCCc1nc2ccccc2c(NC(=O)CNC(C)(C)C)c1CCC | active: 50.1 µM | –
Cc1[nH]c2ccccc2c1C(=O)/C=C/c1ccccc1Cl | inconclusive: 79.4 µM [inhibitor, single point] | –
COc1ccc2[nH]c(C)c(C(=O)CN3CCOCC3)c2c1 | inconclusive: 100 µM [inhibitor, single point] | –
